According to the BET-seq Pho4 binding data (Le et al. 2018):
This is one part of the list. Values were computed here from the reads of four pooled replicates and scatter widely.

These sequences were tested against T1, Pho4 (S. cerevisiae) (UniProt P07270) (assay: relative binding free energy (BET-seq); higher = weaker binding). Conditions: reference: library average.
T1 sequence: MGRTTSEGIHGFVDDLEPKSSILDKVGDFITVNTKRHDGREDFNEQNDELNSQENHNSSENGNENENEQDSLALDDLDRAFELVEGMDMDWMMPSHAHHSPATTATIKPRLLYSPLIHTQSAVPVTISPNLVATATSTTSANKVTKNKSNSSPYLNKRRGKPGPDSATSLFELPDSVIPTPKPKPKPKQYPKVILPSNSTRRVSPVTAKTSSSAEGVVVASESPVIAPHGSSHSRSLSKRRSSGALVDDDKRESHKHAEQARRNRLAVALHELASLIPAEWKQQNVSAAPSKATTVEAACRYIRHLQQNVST

Sequence	relative binding free energy [kcal/mol]
CCTTGCACGTGTGTGT	-0.06
TGCTACACGTGTAATG	0.09
CAGATCACGTGGGTGG	0.03
ATGTGCACGTGATTTT	-0.07
ATGCGCACGTGTATTG	-0.19
GTATTCACGTGGTTGC	0.24
AGTGCCACGTGAATTG	0.28
TAGCCCACGTGGGGTG	-0.3
GGTAACACGTGGTAAA	0.02
ATATACACGTGGTGCG	-0.2
GTGTGCACGTGCGGCT	-0.07
GGGGACACGTGGTCGT	0.02
GTTATCACGTGTTTTC	0.12
GTTTGCACGTGTTGAC	0.11
AGGTGCACGTGGATGT	0.05
GATTTCACGTGCGGTT	0.3
TTTATCACGTGTGGGG	0.28
GGGCACACGTGGGTTT	-0.12
TTTTTCACGTGGCGAG	0.21
CTCGGCACGTGTATGT	-0.01
AGGCTCACGTGTTAGG	0.37
ATGGCCACGTGTGGGC	0.11
GTATACACGTGGTTAG	-0.2

Sequence	relative binding free energy [kcal/mol]
TTGTTCACGTGTATGC	0.34
TAGCGCACGTGGTGGA	-0.18
ATTTTCACGTGGGATA	0.19
TGTAACACGTGATGAG	0.12
TATCGCACGTGGGGCA	-0.11
CGGGCCACGTGGGCTG	-0.28
GGGTTCACGTGGTAAG	0.39
GTCGGCACGTGATCGT	0.12
AGGATCACGTGGATGT	0.05
GTTCACACGTGGCGGG	0.03
CGTGGCACGTGGTCAG	-0.34
CTGAGCACGTGTTGGT	-0.14
AAGTTCACGTGAGATT	0.61
GTTCTCACGTGTTGGC	0.15
GTTGTCACGTGGTGAG	0.02
AAGGACACGTGATGGA	0.15
TTTTGCACGTGTTGGT	0.11
ATTGGCACGTGCATAG	-0.36
TGATTCACGTGGGCTG	0.11
GGGGTCACGTGTGGCT	0.21
AGATACACGTGGCGTG	-0.08
TTTGACACGTGGTGGT	-0.05
GTGGGCACGTGAAAGG	0.27

Sequence	relative binding free energy [kcal/mol]
TAGTTCACGTGTCTTA	0.24
ATTTGCACGTGGTTGG	0.08
ATTACCACGTGTTGGG	0.08
TGTTGCACGTGTGATA	0.08
TTTGTCACGTGCGTGA	0.05
GCGTGCACGTGTTCGG	0.1
ACTGGCACGTGGCGGG	-0.13
TATGCCACGTGGTGCG	-0.21
GTGTTCACGTGGTTAA	0.31
ACGGTCACGTGTTAGT	0.14
TGGGGCACGTGCCGGA	-0.14
GGGATCACGTGTGTAC	0.14
TGGTTCACGTGGAGCT	0.23
TTGTCCACGTGGGGGT	-0.21
TCTTACACGTGTGTGA	0.14
TTTGCCACGTGTGAGG	0.06
CTGATCACGTGCGTGG	0.01
CGGTGCACGTGCGGGG	-0.17
CGTGCCACGTGGTCGG	-0.22
GTATTCACGTGAATTT	0.38
TTCTTCACGTGAGATT	0.42
ATTGACACGTGGCCGG	-0.03
GGATGCACGTGTCTGG	-0.02

Sequence	relative binding free energy [kcal/mol]
ACGTACACGTGGTGTT	0
CTTGACACGTGAGAGG	0.46
TTAGGCACGTGCGCGT	-0.2
GGATTCACGTGTAATT	0.34
GTTAACACGTGTGGCT	0.06
AAGTGCACGTGTCTTT	0.07
ATAAGCACGTGTGAGG	-0.07
ATTGGCACGTGGCGTG	-0.22
AGGGCCACGTGTATGT	-0.07
TAAATCACGTGGTGTC	-0.04
TAAATCACGTGTGGAA	0.26
GTCTTCACGTGTTGTG	0.22
AGTGGCACGTGCAAGG	-0.07
TGCGACACGTGATTTT	0.13
GGGTTCACGTGATTAG	0.46
CGGGGCACGTGTATGT	-0.02
GGGTACACGTGGCTGG	0.09
AAAGACACGTGGGTTG	-0.17
AGGGACACGTGTGGTC	0.08
AGTATCACGTGTGGCA	0
ATACTCACGTGTTGGG	0.14
TAGCTCACGTGGTTAT	0.13
TAATTCACGTGGTATT	0.35

Sequence	relative binding free energy [kcal/mol]
GTAAACACGTGGTTCT	0.03
TGTTGCACGTGCTAGT	-0.02
TAGAACACGTGTTGAT	0.1
TGCGCCACGTGTGTAG	-0.09
ACAATCACGTGTGGGG	0.12
CGCGGCACGTGGGAAG	0
GTTAACACGTGTTTAA	0.01
TAAATCACGTGCGGGT	0.15
CGGGGCACGTGTGTAC	-0.05
TCTGGCACGTGGGATC	-0.06
AGTGGCACGTGGATCT	-0.08
ATTAGCACGTGGAGGG	-0.14
GGGTGCACGTGCTTCG	-0.13
TGTAGCACGTGACAGG	0.06
TGTAACACGTGTGTGG	0.04
AAGTTCACGTGAAGTT	0.34
TAGTACACGTGGGGGG	-0.09
TTGGACACGTGATTAA	0.19
GGATACACGTGTGCGG	-0.01
AGTTGCACGTGTTACA	-0.04
GGAGGCACGTGCAATG	-0.11
GGGGGCACGTGGAACT	0.02
GTGAGCACGTGGCGGT	-0.16
